In the RNAGym collection of RNA variant scans (doi:10.1093/nar/gkz1192):
The source gives no read counts; variants with many changes may rest on few reads.

B1: CPEB3 Ribozyme (parent)
chain: UAACAGGGGGCCACAGCAGAAGCGUUCACGUCGCAGCCCCUGUCAGAUUCUGGUGAAUCUGCGAAUUCUGCUGUAUAUCUC

Variants of: B1
Assay: self-cleavage, relative activity (ratio to wild type); higher = more cleavage; in vitro, sequencing
Procedure, shortened: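 Relative activity compares each variant's cleaved/total read fraction with that of the unmutated ribozyme. To get these fractions, barcoded CPEB3 ribozyme libraries from rounds of error-prone PCR were transcribed with T7 RNA polymerase for 5 hours at 37°C and then given 15 min of DNase I treatment before EDTA was added. The RNAs were reverse transcribed with template switching and sequenced on Illumina, and DNA sequencing linked barcodes to variants. A minimum of 5 reads applied, and three batches were averaged.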

Variant | self-cleavage
A5G A56C U78C | 0.26
A5G A56U A65C U72C | 0.07
A5G A57G U78A | 0.85
A5G A64G U69G | 0.22
A5G A64U A75G | 0.72
A5G C11A U25C U66C U76C | 0.21
A5G C11G A13G | 0.55
A5G C11G A28G A57G U58A U67C | 0.07
A5G C11G A28G C39A U72C | 0.11
A5G C11G G70A | 0.1
A5G C11G U51C U60C | 0.05
A5G C11U A15G U58A U80A | 0.16
A5G C11U A21C A56C U60G U67C | 0.03
A5G C12A A13G A35U A47G U49C | 0.09
A5G C12A A18G U31A G36A U66C U74C | 0.05
A5G C12G A28G U69G | 0.21
A5G C12U A13G | 0.18
A5G C12U A28G A77G | 0.28
A5G C12U C23A U54A C71A A77U U78A | 0.11
A5G C12U G16U A28G U41C U48C U54C | 0.06
A5G C12U U60C G70A U72C | 0.18

Variant | self-cleavage
A5G C14A A45G U51C U54A | 0.54
A5G C14A U31C U41A | 0.09
A5G C14A U41A | 0.41
A5G C14U C40U U43C U74A | 0.27
A5G C17A U76A | 0.52
A5G C17U G55A | 0.14
A5G C23A U26C A47U A64G U66A | 0.2
A5G C23A U51C U72C G73U | 0.59
A5G C23G U26C C37A A64G U72A | 0.06
A5G C23U C40A A47C U67A | 0.07
A5G C23U U25C C34G U43A U60A | 0.09
A5G C23U U51C U72A | 0.05
A5G C29A C40A | 0.13
A5G C29U C39U U78C | 0.06
A5G C29U U31C | 0.38
A5G C32U U48C U60A | 0.1
A5G C34U U54C U60A U80C | 0.17
A5G C38U A64U | 0.58
A5G C39A U72G | 0.23
A5G C39U A45U A57C U69C A77G | 0.13
A5G C39U U54A U58C U74C | 0.13

Variant | self-cleavage
A5G C40A A64U | 0.19
A5G C44U A45U U69A | 0.27
A5G C59G C62U | 0.29
A5G G6A A15U A35G U48C | 0.11
A5G G6A A21G C71A U74C A75G | 0.12
A5G G6A A56U U60C | 0.18
A5G G6A G24A A35U U60C | 0.06
A5G G6A G24U G30A U31C A47G U78C | 0.13
A5G G6A U25C C32A U80A | 0.09
A5G G6C A56G U78C | 0.65
A5G G6C G61A U74C A75G | 0.4
A5G G6C U25C G30C U67A U76G | 0.19
A5G G6C U69C | 0.12
A5G G6U A13U U25C U41C | 0.18
A5G G6U C59U U80G | 0.07
A5G G6U G10A U48C U72A U74C | 0.31
A5G G6U G10C A21U | 0.05
A5G G6U U41A | 0.36
A5G G7A U31A | 0.08
A5G G7A U49A A57G U69A U72C | 0.14
A5G G7C A35U U72C | 0.09

Variant | self-cleavage
A5G G7C A47G | 0.28
A5G G7C U43C U54A A56G U72A | 0.2
A5G G7U G9C G16C U43A U66C U74C | 0.2
A5G G8A A15U U69A | 0.07
A5G G8A A18G G33A G36U G61U U69C | 0.06
A5G G8A A45G A57U A65G | 0.22
A5G G8A C14U U78A | 0.19
A5G G8A U25C U74G | 0.73
A5G G8A U26C | 0.41
A5G G8A U31G C38A A56G U72C U78G | 0.03
A5G G8U A18G G24A C71A | 0.03
A5G G8U A20G | 0.37
A5G G8U U58C A64G U72A | 0.07
A5G G9A A13U U54A | 0.39
A5G G9A A15G U25C C40U U48A | 0.09
A5G G9A A47G U60C | 0.2
A5G G9A A64G A65U U74A | 0.16
A5G G9A C37U U43C A64G | 0.19
A5G G9A U25A C27U A28G U54A U58C | 0.06
A5G G9A U66C | 0.57
A5G G9U U25C G36U A56G | 0.08
